# Results reported in article PMC4336329 (PLoS ONE, 2015).
# In all, about 310,000 compounds went through this assay and about 2,200 (0.71%) showed an effect of 50% or more. The effect is printed as a negative number. The list shows a part of the results. Where a SMILES comes first, the peptide text is derived from it. The star is where a group is joined. Bz = O=C(c1ccccc1)*
# Target: human ether-à-go-go-related gene (hERG) potassium channel (human, UniProt Q12809)
# Assay: primary screen, population patch clamp on CHO cells stably expressing hERG
# Chain of human ether-à-go-go-related gene (hERG) potassium channel (Q12809 whole entry, looked up): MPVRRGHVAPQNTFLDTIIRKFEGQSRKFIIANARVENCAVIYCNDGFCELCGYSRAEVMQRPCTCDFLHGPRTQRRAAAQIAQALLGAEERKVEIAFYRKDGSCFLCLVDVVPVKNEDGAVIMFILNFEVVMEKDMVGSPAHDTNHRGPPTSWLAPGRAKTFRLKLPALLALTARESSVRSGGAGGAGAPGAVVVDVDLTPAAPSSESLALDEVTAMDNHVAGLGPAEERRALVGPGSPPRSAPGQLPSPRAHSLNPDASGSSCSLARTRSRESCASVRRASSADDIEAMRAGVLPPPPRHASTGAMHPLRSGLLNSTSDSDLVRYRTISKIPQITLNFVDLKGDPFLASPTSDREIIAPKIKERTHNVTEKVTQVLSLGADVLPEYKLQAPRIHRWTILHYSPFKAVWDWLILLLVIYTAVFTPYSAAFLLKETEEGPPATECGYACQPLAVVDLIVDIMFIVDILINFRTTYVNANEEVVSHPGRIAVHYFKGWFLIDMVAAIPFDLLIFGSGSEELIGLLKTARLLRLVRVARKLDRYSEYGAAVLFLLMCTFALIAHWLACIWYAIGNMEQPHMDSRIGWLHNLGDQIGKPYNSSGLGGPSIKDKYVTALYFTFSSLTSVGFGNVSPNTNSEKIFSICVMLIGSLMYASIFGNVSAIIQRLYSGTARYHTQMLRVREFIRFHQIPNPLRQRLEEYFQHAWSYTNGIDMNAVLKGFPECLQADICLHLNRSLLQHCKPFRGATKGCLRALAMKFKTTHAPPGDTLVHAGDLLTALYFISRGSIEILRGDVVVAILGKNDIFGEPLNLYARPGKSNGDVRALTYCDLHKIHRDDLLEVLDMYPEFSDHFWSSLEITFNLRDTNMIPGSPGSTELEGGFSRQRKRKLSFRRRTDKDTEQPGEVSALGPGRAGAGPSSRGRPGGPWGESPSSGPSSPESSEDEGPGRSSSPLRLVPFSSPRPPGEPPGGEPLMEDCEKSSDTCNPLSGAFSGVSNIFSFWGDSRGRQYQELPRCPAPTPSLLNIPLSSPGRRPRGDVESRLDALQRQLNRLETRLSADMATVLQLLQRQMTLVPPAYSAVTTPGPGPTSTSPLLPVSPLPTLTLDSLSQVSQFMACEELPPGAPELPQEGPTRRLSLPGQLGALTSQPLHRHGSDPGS
row,Compound,"hERG current change (%, negative = inhibition) at 1uM [%]"
1,Cc1noc(C)c1COc1ccccc1C(=O)NCc1ccccc1Cl,-2.66
2,CN(CC(=O)Nc1ccccc1Br)C(=O)CNC(=O)Cc1cccc2ccccc12,11.1
3,O=C(Cc1ccc(F)cc1)N1CCN=C1SCc1cccc([N+](=O)[O-])c1,-3.33
4,CN1CCN(S(=O)(=O)c2cccc([N+](=O)[O-])c2)CC1,12.3
5,CC(C)Cn1c(N)c(C(=O)CSc2nc3ccccc3n2C)c(=O)n(C)c1=O,1.85
6,COc1ccc(NC(=O)CSc2nnc(Cn3cnc4ccccc43)o2)cc1,12.4
7,Cn1c(N)c(C(=O)COC(=O)c2ccc3c(c2)OCCO3)c(=O)n(C)c1=O,3.15
8,CCCc1nnc2c(N(C)S(=O)(=O)c3ccccc3)nc3ccccc3n12,18
9,COc1ccccc1/C=N/NC(=O)COCC(=O)N/N=C/c1ccccc1OC,9.07
10,CC(C)c1ccc(NC2=NCC(=O)N2Cc2cccs2)cc1.Cl,15.2
11,Cc1ccccc1N1CCN(C2CCCN(C(=O)c3ccnn3C)C2)CC1 (stereo not drawn),9.3
12,CCOC(=O)N1CCN(Cc2nc3cc(NC(C)=O)ccc3n2C)CC1,15.4
13,COc1ccc(C(=O)C2CCCN(Cc3ccc(F)cc3F)C2)cc1F (stereo not drawn),3.8
14,Cc1cc(C)nc(N2CCCC(CCC(=O)NCc3ccc(F)c(F)c3)C2)n1 (stereo not drawn),11.6
15,O=C(/C=C/c1ccc(-c2ccc(F)cc2)o1)N1CCCC1,8.95
16,COc1ccccc1C(=O)NCCC(=O)NC(C)c1ccc(-n2ccnc2)cc1 (stereo not drawn),7.09
17,CCOC(=O)c1sc(=NC(=O)CCSc2ccccc2)n(C)c1C,6.7
18,CSc1ccc(CNC(=O)C2Cc3cc(S(=O)(=O)N4CCCCC4)ccc3N2C(C)=O)cc1 (stereo not drawn),-1.82
19,CCc1nc2ccccc2c(C(=O)OCC(=O)NCc2ccco2)c1C,1.64
20,CCCCNC(=O)Cn1cnc([N+](=O)[O-])n1,12.7
21,O=C1CCCC2=C1C(c1ccc(OS(=O)(=O)c3ccc(Cl)cc3)cc1)C1=C(CCCC1=O)O2,-9.34
22,O=C(/C=C/c1ccco1)Nc1cc(Cl)ccc1C(=O)O,-1.79

row,Compound,"hERG current change (%, negative = inhibition) at 1uM [%]"
1,CC1(C)CC(=O)C=C(OC(=O)c2ccc(Cl)cc2)C1,15.8
2,CC1(C)CC(=O)C(N=Nc2ccc(-c3ccccc3)cc2)=C(O)C1,9.63
3,Nc1[nH]n2c(=O)cc(-c3ccccc3)nc2c1N=Nc1ccc2c(c1)OCO2,19.5
4,Cc1ccc(S(=O)(=O)NCC2CCC(C(=O)NCc3cccnc3)CC2)cc1 (stereo not drawn),8.6
5,O=c1c2ccccc2nc2c3ccccc3c(NCCO)nn12,13.8
6,O=C(COc1ccc([N+](=O)[O-])cc1)N/N=C/c1ccccn1,4.6
7,COc1ccccc1C1CC2CCC(C1OC(C)=O)N2Cc1ccccc1 (stereo not drawn),11.1
8,COc1ccccc1C(=O)Nc1ccc(OCC(=O)N2CC(C)OC(C)C2)cc1 (stereo not drawn),3.91
9,CCN(CC)CCNC(=O)C(=O)NCC1OCCN1S(=O)(=O)c1ccc(Cl)cc1 (stereo not drawn),11.1
10,COc1ccc2nccc(C(N)=O)c2c1,-3.54
11,COc1cc(OC)cc(C(=O)N[C@H](C(=O)NCc2ccccc2)C(C)C)c1,6.55
12,O=S(=O)(c1ccccc1)c1nc(-c2ccccc2)oc1N1CCOCC1,6.92
13,O=C(COC(=O)c1ccc(S(=O)(=O)N2CCOCC2)cc1)Nc1nc(-c2ccccc2)cs1,-2.32
14,Cc1c(C)c(C)c(S(=O)(=O)NCCc2ccccn2)c(C)c1C,1.84
15,COC(=O)c1sc2ncccc2c1OCc1cccc(Cl)c1,14.8
16,O=C(c1ccc2c(=O)n(Cc3ccc(Cl)cc3)c(=S)[nH]c2c1)N1CCCC1,17
17,O=C(CCNc1n[nH]c(=O)[nH]c1=O)N/N=C/c1ccc(C(F)(F)F)cc1,10.8
18,CCn1c(SCC(=O)Nc2cccc(C)c2)nc2nc3c(cc2c1=O)COC(C)(C)C3,4.55
19,COc1ccc(C(=O)N/C(=C\c2cn(S(=O)(=O)N(C)C)c3ccccc23)C(=O)N2CCOCC2)cc1,3.54
20,O=c1[nH]n(-c2ccccc2)c(=O)c2ccccc12,5.47
21,Cc1noc(C)c1C(=O)OCC(=O)NCCC1=CCCCC1,15.8
22,COc1ccc(CCNC(=O)CS(=O)Cc2nc(-c3ccc(C)cc3)oc2C)cc1OC (stereo not drawn),1.24

row,Compound,"hERG current change (%, negative = inhibition) at 1uM [%]"
1,COc1ccccc1-c1c(C)nn2c(N3CCCCCC3)cc(C)nc12,6.37
2,COc1cccc(Cn2c(=O)oc3ccccc32)c1,13.4
3,Cc1cccc(C)c1NC(=O)C(C)N1CCCC1 (stereo not drawn),5.65
4,CCCCCc1nc2sc3c(c2c(=O)n1NC(=O)c1ccc([N+](=O)[O-])cc1)CC(C)(C)OC3,4.62
5,CCCCOc1nc(N)nc(-c2ccccc2)n1,12.3
6,O=C(OCc1c(-c2ccccc2)ncc2ccccc12)c1ccc(Cl)cc1Cl,12
7,COc1ccc(CCNC(=O)CS(=O)(=O)c2cn(CC(=O)N3CCOCC3)c3ccccc23)cc1OC,8.59
8,COC(=O)c1cc(C(=O)c2cc(Cl)ccc2O)coc1=N,4.3
9,CCCCCC(=O)Nc1nc(C)c(-c2csc(Nc3ccccc3OCC)n2)s1,5.26
10,O=C(NCCc1ccc(Cl)cc1)c1cccc(N2CCCC2=O)c1,3.74
11,CN(C)CCCOC(=O)C1c2ccccc2Oc2ccccc21.Cl,-1.74
12,COc1ccc2oc(CS(=O)c3ccccc3)c(C(=O)O)c2c1 (stereo not drawn),13.7
13,CC(=O)c1cccc(NS(=O)(=O)c2ccc3c(c2)N(C(C)=O)CCO3)c1,15.8
14,Cc1cc(C)c(C)c(S(=O)(=O)N2CCN(c3ncnc4ccccc34)CC2)c1C,14.2
15,O=C(O)c1ccc(C2SCC(=O)N2Cc2ccco2)cc1 (stereo not drawn),9.2
16,COC(=O)C(NC(=O)C(NC(=O)c1ccccc1)C(C)C)C(C)C (stereo not drawn) (Bz-Val-Val-OMe; configuration not given here),7.11
17,CCn1cc(/C=N/NC(=O)COc2cccc3cccnc23)c2ccccc21,6.66
18,COc1ccc(S(=O)(=O)N2CCCC(C(=O)NC3CC3)C2)cc1OC (stereo not drawn),4.63
19,CCCC(=O)C1=C(O)C(C(=O)OC)C(C)(C)CC1=Nc1ccccc1 (stereo not drawn),3.42
20,CCCCC(=O)NC(c1ccccc1)c1ccc2cccnc2c1O (stereo not drawn),7.88
21,CCN(CC)c1ccc(C(=O)OCC(=O)N(C(C)C)C(C)C)cc1,3.88
22,Cc1cccc(NC(=O)CS(=O)(=O)Cc2ccccc2)n1,1.1

row,Compound,"hERG current change (%, negative = inhibition) at 1uM [%]"
1,CCOC(=O)C1=C(CNC(C)(C)CC(C)(C)C)NC(=O)NC1c1cccc([N+](=O)[O-])c1 (stereo not drawn),-11.3
2,COc1cc(C(=O)COC(=O)C2CCN(c3ccc(C(F)(F)F)cn3)CC2)ccc1OC(F)F,-3.99
3,CC(C)(C)Nc1nc(SCc2ccccc2)nc(N2CCOCC2)n1,-4.98
4,CC1CCN(Cc2ccc(NC(=O)C3CCN(c4nnc(-n5cccc5)s4)CC3)cc2)CC1,11.7
5,CCOCC(=O)Nc1cc(C(=O)Nc2cccc(C)c2C)ccc1Cl,13.3
6,COCCOc1ccc(C(F)(F)F)cc1NC(=O)CN1C(=O)NC2(CCc3ccccc32)C1=O (stereo not drawn),5.25
7,COc1ccc(C(=O)NCCNC(=O)c2ccc(OC)cc2)cc1,15.7
8,Cc1c(C)c(C)c(CN2CCSCC2)c(C)c1C,16.3
9,CCOC(=O)/C(C#N)=C/c1cc2ccccc2nc1N1CCCCC1,8.45
10,CC1CCC/C(=N/Nc2nc3ccccc3s2)C1 (stereo not drawn),6.62
11,COC(=O)C(c1ccccc1)C(C(=O)OC)c1ccccc1 (stereo not drawn),8.3
12,N/C(=N\N=C\c1ccc(O)c(O)c1)c1nonc1N,2.03
13,CCOc1ccc2oc(C(=O)OCC(=O)NCc3ccc(OC)cc3)c(C)c2c1,-0.0082
14,O=C(CNC(=S)N(CCCN1CCOCC1)Cc1cccs1)N1CCOCC1,5.38
15,O=C(COc1ccccc1C(=O)NCC1CCCO1)Nc1ccc(Cl)cc1Cl (stereo not drawn),10.7
16,Fc1cccc(F)c1CN1CCN(Cc2c(F)cccc2F)CC1,5.79
17,CCn1c(CC(=O)Nc2ccccc2Cl)nnc1SCC(=O)NC1CCCC1,13.7
18,COc1ccc2c(c1OC)c(=O)n1c3ccc(OC(C)C(=O)NCCCN4CCOCC4)cc3c3ccnc2c31 (stereo not drawn),4.67
19,CCOC(=O)C1=C(C)C(c2ccc(OC)cc2OC)NC(=O)N1 (stereo not drawn),8.75
20,COc1ccc(C2=NCC(=O)N(CC(=O)NCc3ccco3)c3sc4c(c32)CCCC4)cc1,-0.515
21,O=C(NNS(=O)(=O)c1ccccc1F)c1ccccc1-n1cccc1,5.06
